Measurements from the supplement of paper PMC10441789.
The list shows a part of the results. Antibody binding of pooled human sera (four to six donors per pool; dilution not stated) to peptides of the Trypanosoma cruzi antigen TSSA on microarrays. Quantile-normalised fluorescence in arbitrary units, mean of duplicate arrays; higher = more binding. No active / inactive call. The uninfected pools are read here as the healthy donors of the same country. The strongest signals lie near the top of the scale (about 60,000).

Legend:
Assay in all cases: antibody binding signal (normalised fluorescence) (arbitrary fluorescence units); higher = stronger serum antibody binding to peptide
[1] = test system: pooled sera of chronic Chagas disease patients, Argentina
Method: (§1)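 Microarray of 15-residue peptides over residues 30-55 of Trypanosoma cruzi TSSAII, each with 1 to 10 substitutions at naturally variable positions, probed with one serum pool per country.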

[2] = test system: pooled sera of chronic Chagas disease patients, Bolivia
Method: as §1

[3] = test system: pooled sera of chronic Chagas disease patients, Brazil
Method: as §1

[4] = test system: pooled sera of chronic Chagas disease patients, Colombia
Method: as §1

[5] = test system: pooled sera of chronic Chagas disease patients, Mexico
Method: as §1

[6] = test system: pooled sera of chronic Chagas disease patients, USA
Method: as §1

[7] = test system: pooled sera of uninfected people, Argentina
Method: as §1

[8] = test system: pooled sera of uninfected people, Bolivia
Method: as §1

[9] = test system: pooled sera of uninfected people, Brazil
Method: as §1

[10] = test system: pooled sera of uninfected people, Colombia
Method: as §1

[11] = test system: pooled sera of uninfected people, Mexico
Method: as §1

[12] = test system: pooled sera of uninfected people, USA
Method: as §1

Sequence | antibody binding signal [1] | antibody binding signal [2] | antibody binding signal [3] | antibody binding signal [4] | antibody binding signal [5] | antibody binding signal [6] | antibody binding signal [7] | antibody binding signal [8] | antibody binding signal [9] | antibody binding signal [10] | antibody binding signal [11] | antibody binding signal [12]
PPSGKDNKTATGEAP | 15000 | 24600 | 12400 | 1180 | 7260 | 20900 | 414 | 490 | 442 | 416 | 151 | 246
GTEKKPATGGAPSQS | 2360 | 2050 | 4080 | 1380 | 3600 | 1990 | 419 | 1660 | 836 | 185 | 396 | 1400
TDNKTAAGETPSQSG | 188 | 377 | 2180 | 180 | 273 | 236 | 124 | 387 | 447 | 156 | 193 | 133
EKKAATGGTPSPPGA | 757 | 659 | 542 | 1760 | 1100 | 1160 | 303 | 974 | 973 | 1470 | 188 | 836
TDNKTATGEAPSPPG | 10700 | 30900 | 20900 | 213 | 255 | 19300 | 144 | 238 | 212 | 152 | 108 | 123
TDKKAAAGETPSPPG | 780 | 298 | 2300 | 310 | 288 | 2300 | 167 | 193 | 145 | 149 | 243 | 1180
PSGKENKPAAGEAPS | 10500 | 5790 | 20900 | 11300 | 11000 | 18600 | 7430 | 5560 | 380 | 490 | 569 | 294
PPSGKEKKAAAGGAP | 1960 | 325 | 1850 | 3430 | 4410 | 2970 | 310 | 191 | 132 | 267 | 97.1 | 153
TDNKAATGEAPSQSG | 21900 | 35500 | 35000 | 232 | 207 | 26500 | 210 | 312 | 194 | 121 | 175 | 117
GKDKKTAAGGTPSPP | 317 | 175 | 219 | 3120 | 464 | 1710 | 96.9 | 88.2 | 239 | 226 | 97.3 | 133
GTDNKPAAGETPSQP | 3620 | 3820 | 44000 | 904 | 213 | 4420 | 129 | 611 | 320 | 199 | 322 | 104
GTDKKAAAGGTPSQS | 284 | 193 | 184 | 4820 | 396 | 1390 | 170 | 170 | 1210 | 139 | 302 | 117
TPPSGKDNKTATGET | 4920 | 2640 | 2200 | 1030 | 26000 | 2340 | 269 | 451 | 166 | 311 | 124 | 121
TEKKAATGGTPSPPG | 1710 | 575 | 404 | 3020 | 1020 | 1820 | 293 | 157 | 692 | 1020 | 148 | 235
GTENKAATGEAPSPS | 38300 | 39400 | 35100 | 2180 | 2470 | 28400 | 170 | 386 | 136 | 168 | 132 | 89.8
GKDNKAAAGETPSPS | 1410 | 271 | 2830 | 2050 | 2430 | 2840 | 199 | 351 | 108 | 205 | 152 | 1340
TEKKTAAGEAPSQPG | 7320 | 21800 | 37300 | 592 | 569 | 7750 | 314 | 278 | 262 | 1550 | 261 | 188
GKDNKPATGETPSPP | 39700 | 22200 | 35300 | 3600 | 6520 | 27700 | 345 | 782 | 223 | 282 | 1840 | 546
GTDKKAAAGGTPSQP | 253 | 273 | 250 | 5170 | 423 | 1540 | 246 | 165 | 916 | 185 | 310 | 126
TPPSGTEKKPAAGGT | 44400 | 7220 | 43400 | 1090 | 38700 | 7540 | 1370 | 825 | 2960 | 687 | 316 | 1070
ISTPPSGKDNKPAAG | 36100 | 2090 | 23600 | 259 | 37700 | 13200 | 542 | 894 | 144 | 186 | 346 | 282
TSSTPPSGKDNKTAT | 14200 | 11500 | 6930 | 2570 | 20400 | 2810 | 351 | 474 | 161 | 247 | 126 | 190
TEKKAAAGGAPSQSG | 1780 | 185 | 343 | 6330 | 843 | 1210 | 204 | 139 | 503 | 154 | 203 | 240
KAAAGEAPSQPGASS | 8950 | 31000 | 45100 | 245 | 209 | 7830 | 244 | 426 | 114 | 117 | 190 | 187
KENKPAAGEAPSPPG | 665 | 359 | 29300 | 340 | 441 | 13900 | 195 | 283 | 160 | 112 | 116 | 109

Sequence | antibody binding signal [1] | antibody binding signal [2] | antibody binding signal [3] | antibody binding signal [4] | antibody binding signal [5] | antibody binding signal [6] | antibody binding signal [7] | antibody binding signal [8] | antibody binding signal [9] | antibody binding signal [10] | antibody binding signal [11] | antibody binding signal [12]
GTDNKTAAGEAPSPP | 212 | 342 | 28500 | 227 | 278 | 9430 | 147 | 545 | 1190 | 177 | 114 | 134
TEKKTAAGETPSQPG | 858 | 2300 | 26600 | 501 | 447 | 3800 | 122 | 437 | 400 | 1300 | 272 | 244
TDKKAAAGEAPSPPG | 737 | 678 | 8420 | 375 | 281 | 11100 | 151 | 93.7 | 137 | 103 | 131 | 164
SSTPPSGKEKKTAAG | 13300 | 200 | 301 | 957 | 6780 | 723 | 284 | 221 | 109 | 188 | 96.6 | 177
KEKKTAAGEAPSQPG | 1830 | 2280 | 25100 | 291 | 173 | 4100 | 207 | 104 | 97.4 | 364 | 81.2 | 80.4
KTAAGGAPSPPGASS | 157 | 215 | 585 | 7200 | 872 | 642 | 274 | 122 | 114 | 99 | 89.8 | 171
EKKPATGGTPSQPGA | 1010 | 692 | 2620 | 2420 | 655 | 795 | 523 | 777 | 1160 | 496 | 479 | 717
PSGKDNKAATGGTPS | 2470 | 383 | 2650 | 4440 | 3800 | 3480 | 261 | 199 | 144 | 113 | 89 | 102
TDNKAAAGGAPSPPG | 260 | 332 | 366 | 2760 | 265 | 742 | 321 | 287 | 222 | 221 | 120 | 207
TPPSGKDKKTAAGEA | 1560 | 485 | 801 | 513 | 27100 | 803 | 209 | 296 | 134 | 189 | 103 | 177
TPPSGTDKKPAAGET | 29300 | 36400 | 44700 | 5780 | 46800 | 4100 | 760 | 440 | 501 | 532 | 4840 | 407
GKDNKAATGGAPSPP | 707 | 232 | 768 | 1150 | 1450 | 1760 | 232 | 243 | 96.6 | 148 | 84.3 | 85.5
TPPSGKDNKTAAGEA | 5610 | 2710 | 2240 | 878 | 22900 | 2470 | 238 | 541 | 250 | 253 | 509 | 144
DNKPAAGETPSPPGA | 163 | 275 | 18500 | 282 | 214 | 3690 | 125 | 297 | 270 | 181 | 237 | 271
TPPSGTENKTATGET | 43800 | 38500 | 42600 | 400 | 2450 | 17700 | 1840 | 285 | 205 | 337 | 230 | 164
TISTPPSGTDNKAAA | 40400 | 48400 | 54700 | 1690 | 11500 | 18900 | 3670 | 1280 | 1710 | 491 | 319 | 1410
EKKAATGEAPSPPGA | 20800 | 14600 | 30100 | 366 | 860 | 23600 | 854 | 769 | 138 | 635 | 272 | 914
SGKENKPAAGGTPSP | 4500 | 783 | 18700 | 4870 | 4830 | 18000 | 10100 | 4040 | 617 | 310 | 561 | 171
SGTEKKTATGEAPSQ | 14900 | 26300 | 15800 | 532 | 634 | 20800 | 212 | 434 | 323 | 113 | 138 | 110
GTDKKAATGGAPSQS | 545 | 245 | 562 | 1340 | 1250 | 853 | 297 | 561 | 102 | 513 | 255 | 137
EKKAAAGETPSPPGA | 1000 | 235 | 1490 | 421 | 306 | 4520 | 148 | 1020 | 106 | 132 | 215 | 1390
TEKKPAAGETPSQPG | 1690 | 1990 | 33800 | 310 | 312 | 3540 | 85.1 | 386 | 310 | 571 | 190 | 555
TDKKTATGETPSQSG | 628 | 1170 | 4440 | 244 | 287 | 6770 | 319 | 184 | 316 | 127 | 242 | 113
PSGKDNKTATGEAPS | 14500 | 17100 | 14400 | 3180 | 1550 | 19500 | 362 | 345 | 275 | 274 | 130 | 198
GTEKKTAAGEAPSQP | 3670 | 8360 | 35000 | 697 | 908 | 8560 | 308 | 865 | 205 | 2360 | 150 | 86
